Experimental data reported in patent publication US20240254117A1, “PYRIMIDO-HETEROCYCLIC COMPOUNDS, AND PREPARATION METHOD THEREFOR AND USE THEREOF” (SHANGHAI RINGENE BIOPHARMA CO., LTD., priority 2020, published 2024).

Biological target: T1, KRAS^G12C/SOS1 (Homo sapiens, UniProt Q07889)
T1 sequence (Q07889 1-1333): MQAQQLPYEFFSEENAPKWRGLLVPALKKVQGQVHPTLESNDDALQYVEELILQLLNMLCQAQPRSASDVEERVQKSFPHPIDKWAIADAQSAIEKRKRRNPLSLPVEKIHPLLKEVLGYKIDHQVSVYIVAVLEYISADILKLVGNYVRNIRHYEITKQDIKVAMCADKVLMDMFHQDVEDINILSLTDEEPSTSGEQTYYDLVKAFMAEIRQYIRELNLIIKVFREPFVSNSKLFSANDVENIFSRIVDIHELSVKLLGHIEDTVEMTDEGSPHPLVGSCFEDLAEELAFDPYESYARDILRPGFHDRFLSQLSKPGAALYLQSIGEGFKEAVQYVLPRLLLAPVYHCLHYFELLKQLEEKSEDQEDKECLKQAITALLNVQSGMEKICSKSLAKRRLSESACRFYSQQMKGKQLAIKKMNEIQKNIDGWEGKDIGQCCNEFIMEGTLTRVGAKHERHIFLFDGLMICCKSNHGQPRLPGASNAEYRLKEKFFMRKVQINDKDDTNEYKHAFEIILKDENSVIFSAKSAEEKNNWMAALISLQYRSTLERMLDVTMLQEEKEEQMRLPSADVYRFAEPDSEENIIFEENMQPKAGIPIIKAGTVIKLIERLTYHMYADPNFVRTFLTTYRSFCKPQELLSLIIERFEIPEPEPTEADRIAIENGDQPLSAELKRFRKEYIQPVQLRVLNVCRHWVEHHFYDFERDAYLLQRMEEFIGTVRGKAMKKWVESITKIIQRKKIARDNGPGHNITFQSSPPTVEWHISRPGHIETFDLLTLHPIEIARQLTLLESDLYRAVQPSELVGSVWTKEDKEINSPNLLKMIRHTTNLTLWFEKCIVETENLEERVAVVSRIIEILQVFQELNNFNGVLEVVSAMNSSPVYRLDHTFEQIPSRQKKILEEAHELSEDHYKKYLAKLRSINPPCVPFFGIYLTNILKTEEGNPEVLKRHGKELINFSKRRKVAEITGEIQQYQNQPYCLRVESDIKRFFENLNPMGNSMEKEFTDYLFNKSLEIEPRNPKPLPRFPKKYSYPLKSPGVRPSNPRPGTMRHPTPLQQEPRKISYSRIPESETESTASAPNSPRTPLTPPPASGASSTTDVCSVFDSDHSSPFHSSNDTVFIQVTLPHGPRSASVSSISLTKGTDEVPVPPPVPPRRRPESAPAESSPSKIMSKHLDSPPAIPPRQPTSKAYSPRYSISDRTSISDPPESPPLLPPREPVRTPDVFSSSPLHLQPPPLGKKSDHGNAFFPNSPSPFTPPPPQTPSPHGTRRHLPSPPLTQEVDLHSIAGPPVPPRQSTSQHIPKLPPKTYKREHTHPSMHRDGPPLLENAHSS
Assay: biochemical

| SMILES | IC50 |
| --- | --- |
| Cc1nc(N[C@H](C)c2cccc(C(F)(F)F)c2)c2cc(C3CCOCC3)c(=O)n(C)c2n1 [Example 1] | 179 nM |
| Cc1nc(N[C@H](C)c2cccc(C(F)(F)F)c2)c2cc(C(C)(C)C)c(=O)n(C)c2n1 [Example 2] | 817 nM |
| Cc1nc(N[C@H](C)c2ccc(-c3ccccc3CN(C)C)s2)c2cc(C3CCOCC3)c(=O)n(C)c2n1 [Example 3] | 8.3 nM |
| Cc1nc(N[C@H](C)c2ccc(-c3ccccc3CN(C)C)s2)c2cc(C3(C)CCOC3)c(=O)n(C)c2n1 (some centres unmarked) [Example 4] | < 50 nM |
| Cc1nc(N[C@H](C)c2ccc(-c3ccccc3CN(C)C)s2)c2cc(C3(C)CC3)c(=O)n(C)c2n1 [Example 5] | < 50 nM |
| Cc1nc(N[C@H](C)c2cccc(-c3ccccc3CN(C)C)c2)c2cc(C3CCOCC3)c(=O)n(C)c2n1 [Example 6] | < 50 nM |
| Cc1nc(N[C@H](C)c2ccc(-c3ccccc3CN(C)C)cc2)c2cc(C3CCOCC3)c(=O)n(C)c2n1 [Example 7] | < 50 nM |
| Cc1nc(N[C@H](C)c2cccc(C(F)(F)F)c2)c2cc(-c3ccc(=O)n(C)c3)c(=O)n(C)c2n1 [Example 8] | 94 nM |
| Cc1nc(N[C@H](C)c2cccc(C(F)(F)F)c2)c2cc(C3=CCOCC3)c(=O)n(C)c2n1 [Example 9] | 118 nM |
| Cc1nc(N[C@H](C)c2ccc(-c3ccccc3CN(C)C)s2)c2cc(-c3ccc(=O)n(C)c3)c(=O)n(C)c2n1 [Example 10] | < 50 nM |
| Cc1nc(N[C@H](C)c2ccc(-c3ccccc3CN(C)C)s2)c2cc(-c3ccc4c(c3)CCO4)c(=O)n(C)c2n1 [Example 11] | < 50 nM |
| Cc1nc(N[C@H](C)c2cccc(C(F)(F)F)c2)c2cc(N3CCOCC3)c(=O)n(C)c2n1 [Example 12, (R)-2,8-dimethyl-6-morpholin-4-((1-(3-(trifluoromethyl)phenyl)ethyl)amino) pyrido [2,3-d] pyrimidin-7 (8H)-one] | 69 nM |
| Cc1nc(N[C@H](C)c2cccc(C(F)(F)F)c2)c2cc(OC3CCOCC3)c(=O)n(C)c2n1 [Example 13] | < 50 nM |
| Cc1nc(N[C@H](C)c2ccc(-c3ccccc3CN(C)C)s2)c2cc(-c3ccc(F)cc3)c(=O)n(C)c2n1 [Example 14] | < 50 nM |
| Cc1nc(N[C@H](C)c2ccc(-c3ccccc3CN(C)C)s2)c2cc(-c3ccc4nccn4c3)c(=O)n(C)c2n1 [Example 15] | < 50 nM |
| COc1ccc(-c2cc3c(N[C@H](C)c4ccc(-c5ccccc5CN(C)C)s4)nc(C)nc3n(C)c2=O)cc1 [Example 16] | < 50 nM |
| Cc1nc(N[C@H](C)c2ccc(-c3ccccc3CN(C)C)s2)c2cc(-c3ccc(N)nc3)c(=O)n(C)c2n1 [Example 17] | < 50 nM |
| Cc1nc(N[C@H](C)c2ccc(-c3ccccc3CN3CCCC3)s2)c2cc(-c3ccc(=O)n(C)c3)c(=O)n(C)c2n1 [Example 18] | < 50 nM |
| Cc1nc(N[C@H](C)c2ccc(-c3cc(Cl)ccc3CN(C)C)s2)c2cc(-c3ccc(=O)n(C)c3)c(=O)n(C)c2n1 [Example 19] | < 50 nM |
| Cc1nc(N[C@H](C)c2ccc(-c3ccc(Cl)cc3CN(C)C)s2)c2cc(-c3ccc(=O)n(C)c3)c(=O)n(C)c2n1 [Example 20] | < 50 nM |
| Cc1nc(N[C@H](C)c2cccc(C(F)(F)F)c2)c2cc(C3CCOCC3)c3nccn3c2n1 [Example 21, (R)-2-methyl-6-(tetrahydro-2H-pyran-4-yl)-N-(1-(3-(trifluoromethyl)phenyl)ethyl)imidazo (1′,2′:1,6) pyrido [2,3-d] pyrimidin-4-amino] | 254 nM |
| Cc1nc(N[C@H](C)c2cccc(C(F)(F)F)c2)c2cc(-c3ccccc3)c3nccn3c2n1 [Example 22] | > 100 nM |
| Cc1nc(N[C@H](C)c2cc(N)cc(C(F)(F)F)c2)c2cc(-c3ccc(=O)n(C)c3)c3nccn3c2n1 [Example 23] | 30.5 nM |
| Cc1nc(N[C@H](C)c2ccc(-c3ccccc3CN(C)C)s2)c2cc(C3CCOCC3)c3nccn3c2n1 [Example 24] | < 50 nM |

| SMILES | IC50 |
| --- | --- |
| Cc1nc(N[C@H](C)c2ccc(-c3ccccc3CN(C)C)s2)c2cc(-c3ccc(=O)n(C)c3)c3nccn3c2n1 [Example 25] | < 50 nM |
| Cc1nc(N[C@H](C)c2ccc(-c3cc(F)c(F)cc3CN(C)C)s2)c2cc(-c3ccc(=O)n(C)c3)c(=O)n(C)c2n1 [Example 26] | > 100 nM |
| Cc1nc(N[C@H](C)c2sc(-c3ccccc3CN(C)C)cc2Cl)c2cc(-c3ccc(F)cc3)c(=O)n(C)c2n1 [Example 28] | < 50 nM |
| Cc1nc(N[C@H](C)c2cc(N)cc(C(F)(F)F)c2)c2cc(-c3ccc4c(c3)CCO4)c3nccn3c2n1 [Example 30, (R)-N-(1-(3-amino-5-(trifluoromethyl)phenyl)ethyl)-6-(2,3-dihydrobenzofuran-5-yl)-2-methylimidazole [1′,2′:1,6] pyridine [2,3-d] pyrimidin-4-amine] | 50 to 100 nM |
| Cc1nc(N[C@H](C)c2cc(N)cc(C(F)(F)F)c2)c2cc(N3CCOCC3)c(=O)n(C)c2n1 [Example 31, (R)-4-((1-(3-amino-5-(trifluoromethyl)phenyl)ethyl)amino)-2,8-dimethyl-6-morpholinopyridine [2,3-d] opyrimidin-7 (8H)-one] | 187 nM |
| Cc1nc(N[C@H](C)c2cc(N)cc(C(F)(F)F)c2)c2cc(N3C4CCC3COC4)c(=O)n(C)c2n1 [Example 32] | 173 nM |
| Cc1nc(N[C@H](C)c2cc(N)cc(C(F)(F)F)c2)c2cc(NC34CCC(CC3)CC4)c(=O)n(C)c2n1 [Example 33] | > 100 nM |
| Cc1nc(N[C@H](C)c2cc(N)cc(C(F)(F)F)c2)c2cc(N3CCC(C(=O)N4CCN(C)CC4)CC3)c(=O)n(C)c2n1 [Example 34] | 32 nM |
| Cc1nc(N[C@H](C)c2cc(N)cc(C(F)(F)F)c2)c2cc(N3CCC(C(=O)N(C)CCO)CC3)c(=O)n(C)c2n1 [Example 35] | < 50 nM |
| Cc1nc(N[C@H](C)c2cc(N)cc(C(F)(F)F)c2)c2cc(N3CCN(C4CCCC4)CC3)c(=O)n(C)c2n1 [Example 36] | 22 nM |
| Cc1nc(N[C@H](C)c2ccc(-c3cc(F)c(F)cc3CN3CCCC3)cc2)c2cc(N3CCOCC3)c(=O)n(C)c2n1 [Example 37] | < 50 nM |
| CNS(=O)(=O)c1ccc(-c2cccc([C@@H](C)Nc3nc(C)nc4c3cc(N3CCOCC3)c(=O)n4C)c2)cc1 [Example 38] | < 50 nM |
| Cc1nc(N[C@H](C)c2cccc(-c3ccc(C(=O)NCCN(C)C)cc3)c2)c2cc(N3CCOCC3)c(=O)n(C)c2n1 [Example 39] | 42 nM |
| Cc1nc(N[C@H](C)c2ccc(-c3ccccc3CN3CCCC3)cc2)c2cc(N3CCOCC3)c(=O)n(C)c2n1 [Example 40] | < 50 nM |
| Cc1nc(N[C@H](C)c2cccc(C(F)(F)F)c2)c2cc(N3CCC(C(=O)N4CCN(C)CC4)CC3)c(=O)n(C)c2n1 [Example 42] | 34 nM |
| Cc1nc(N[C@H](C)c2cccc(C(F)(F)F)c2)c2cc(N3CCN(C4CCCC4)CC3)c(=O)n(C)c2n1 [Example 43] | 48 nM |
| Cc1nc(N[C@H](C)c2cc(N)cc(C(F)(F)F)c2)c2cc(NC3CCOCC3)c(=O)n(C)c2n1 [Example 44] | 385 nM |
| Cc1nc(N[C@H](C)c2cc(N)cc(C(F)(F)F)c2)c2cc(NCC3CCOCC3)c(=O)n(C)c2n1 [Example 45] | > 100 nM |
| Cc1nc(N[C@H](C)c2cccc(C(F)(F)F)c2)c2cc(NC3CCOCC3)c(=O)n(C)c2n1 [Example 46] | > 100 nM |
| Cc1nc(N[C@H](C)c2cccc(C(F)(F)F)c2)c2cc(NCC3CCOCC3)c(=O)n(C)c2n1 [Example 47] | > 100 nM |
| Cc1nc(N[C@H](C)c2cc(N)cc(C(F)(F)F)c2)c2cc(OC3CCOCC3)c(=O)n(C)c2n1 [Example 48, (R)-4-((1-(3-amino-5-(ethyltrifluoromethyl)phenyl)ethyl)amino)-2,8-dimethyl-6-((tetrahydro-2H-pyran-4-yl)oxo) pyridine [2,3-d] pyrimidin-7 (8H)-one] | 330 nM |
| Cc1nc(N[C@H](C)c2ccc(-c3ccccc3CN3CCCC3)s2)c2cc(-c3ccc(F)cc3)c(=O)n(C)c2n1 [Example 49, (R)-6-(4-Fluorophenyl)-2,8-dimethyl-4-((1-(5-(2-(pyrrolin-1-ylmethyl)phenyl)thiophen-2-yl)ethyl)amino) pyridine [2,3-d] pyrimidin-7 (8H)-one] | 172 nM |
| Cc1nc(N[C@H](C)c2ccc(-c3ccccc3CN3CCCC3)s2)c2cc(N3CCOCC3)c(=O)n(C)c2n1 [Example 50] | 17 nM |
